Among the data in the RNAGym collection of RNA variant scans (doi:10.7554/elife.90254) are self-cleavage values, retold here.

B1: LINE1-mini (parent)
chain: GGCAGAGCUCAACACAGCGUGGCAAAGUGGCUGUGGCUAGACUGCC

The source gives no read counts; variants with many changes may rest on few reads.

The data set covers variants of B1. The data set can be described thus: self-cleavage, relative activity (ratio to wild type); higher = more cleavage; in vitro, sequencing; the parent is a self-cleaving ribozyme.
Regarding G1A G2A C31U, the self-cleavage was 0.48.
Under C3G G5A A12G G17A C18A G21A stands 0.01; under C3A C18A G44A, 0.53; under C13A C23G G29A U38C, 0.07.
With G7C C10A U43A the figure was 0.03; with G5U G36A U38G A39C C46A, 0.04.
As for C18G C31A G35U C46A, the self-cleavage amounted to 0.04.
For the variant G2C C10A G21C G22C G36U, the self-cleavage amounted to 0.03.
Turning to G5A U32G G33A, the self-cleavage stood at 0.14.
Under A26U G29A C37A G40A stands 0.05; under C15G G22U G30C, 0.02.
Turning to G7A C13U U20G A24U U34C, the self-cleavage worked out at 0.16.
With A6U G21A C42U, the self-cleavage stood at 0.45.
Consider A4G G17A G40A, for which the self-cleavage amounted to 0.
With C3G A12G C18A, the self-cleavage stood at 0.34.
As to G1C C23G G33U, the self-cleavage worked out at 0.07.
With C18A G33A G36U G40A the figure was 0.02; with A4U G5C A24G C42G, 0.01.
Under C23A A24U G35U A41U stands 0.05.
Under C3A G19A G35A stands 0.16; under C13U C15A C18A C37G, 0.02; under C23G A24G A41U G44U C45A, 0.06.
For C3U G5A C8G, the self-cleavage came to 0.06.
C15G G19A U32A C42G: the self-cleavage was 0.02.
Under G1C A14C C15A G30C stands 0; under G1C A25G G33U, 0.02; under C8A A25C U43A, 0.01.
With G19C C23G C45U C46A the figure was 0.21.
For the variant C18U G33U G35U G40U C42A, the self-cleavage was determined as 0.21.
Under G1U A4C G7A C23A G30U C37U stands 0.07.
As to G2C G7U C10G U38A, the self-cleavage was determined as 0.02.
On to A16C G21A G27U G40A, for which the self-cleavage worked out at 0.08.
Consider U9A C13A U20A G36C C45A, for which the self-cleavage was found to be 0.08.
Turning to A26G G29U G40C C45A, the self-cleavage is 0.01.
With G5U G21U A24U G30C C31U, the self-cleavage stood at 0.05.
With C3U C10A C15G the figure was 0.01.
Regarding A26U U32A G36A, the self-cleavage was found to be 0.03.
Consider G1A U9A C15U A16G G29A, for which the self-cleavage was 0.24.
With A14C A16C G33U A41U the figure was 0.02.
Turning to C3G A14G G35U C37A U43C C45U C46A, the self-cleavage was found to be 0.13.
With G2C C10U A14C A24G C31G U32G A41C the figure was 0.02.
Take G7A U20G A39U: the self-cleavage came to 0.14.
Turning to G1U C3A A11G A24G, the self-cleavage came out at 0.08.
Consider G29U A41G C46A, for which the self-cleavage was 0.09.
Consider C18A A24U A26U, for which the self-cleavage was determined as 0.08.
A16G G33U G35U: the self-cleavage is 0.
Under G1A C18U G19A G40U stands 0.04.
As to U9G G19C G36U, the self-cleavage is 0.05.
For the variant C10G U32G A41C C42A, the self-cleavage came to 0.
Take A12U A24U C31G: the self-cleavage turned out to be 0.01.
Under C3A C13G C37A stands 1.51.
With G2A A12C U32C the figure was 0.02; with U9C G21C C45U, 0.02.
For the variant C3U G5C G19C A26U C46A, the self-cleavage was determined as 0.06.
G2A A12G C13A G27C G29U G36A: the self-cleavage was determined as 0.12.
With G1U C3A C10U U34A the figure was 0.12; with G17A C18A U20C G29C G36U G40U, 0.02.
Under G29A U38G A41C stands 0.01; under G1C A4G A25U, 0.02; under C3G G7C G19U, 0.06.
Turning to U9A C37U A39C, the self-cleavage is 0.4.
Turning to G5U C13G U38A, the self-cleavage came to 0.07.
Regarding G30A U38G C46G, the self-cleavage is 0.02.
With A6G A12G C23G U34A the figure was 0.02; with C3U G22C A24G G30C U38A G44A, 0.24; with C3G G19A G40U, 0.09.
With G2C G35C U38A, the self-cleavage was 0.02.
With U9A C23U G29U C45A the figure was 0.29.
Under C8G U20C A39C stands 0.03; under A4U C23G G44U, 0.1; under A11G U32G C37A, 0.01.
In the case of C10G G27A U28A G29A C31A U32C C37G, the self-cleavage amounted to 0.
Under A16U C31U G40A stands 0.
On to G5A A11C A16U G17C C31U A41C, for which the self-cleavage amounted to 0.
With A12C A16U C23A U34G C42G U43G the figure was 0; with G2U C3A C13A A16C G22U A26G U28C C42G U43C, 0.01; with C10A A14U C31A, 0.01.
With G21U G33A A41G the figure was 0.15.
For G7A U43G C46G, the self-cleavage was 0.14.
With C8U C10A C18G C42A G44A the figure was 0; with A4U C15G G29C G33C, 0.29.
G1A G2U C15G A16U U28A: the self-cleavage amounted to 0.01.
For G2C A11C C13G, the self-cleavage was 0.02.
Turning to G5C A25U G27C U34C C46A, the self-cleavage was 0.14.
G1C G2U A11C G27C G29U U32G A39C C42G: the self-cleavage worked out at 0.
Under G2C A11C A24C stands 0.01.
Under G1U C8U A39C stands 0.11; under G29A C37U A41G, 0.07; under C8U A39U C42A G44A, 0.01.
Turning to C8U G19C C23U G40A A41G, the self-cleavage worked out at 0.17.
For the variant G5U G30C C37A, the self-cleavage was 0.04.
With U20G G29A U34G C42U the figure was 0.01; with C3A C13G C15G C23U G44C, 0.03; with G2C A4U C10A G30U C37A A39U, 0.
Under A16U G17C C45U C46A stands 0.07; under G2C C13G A39U, 0.06; under A4G G40C C46A, 0.07.
Under U9C A25G U34C C45U stands 0.12; under C13A A16U U28A G29U G44C, 0.1.
As for A6C C10U A24U A41C, the self-cleavage was 0.01.
For the variant A26C G33C U43A C45U, the self-cleavage came out at 0.02.
Regarding G19U A25C G30A, the self-cleavage turned out to be 0.29.
In the case of G5A G7U G17U G30A, the self-cleavage came to 0.1.
Under A6G G33A G35C C45U stands 0.03; under C3G C13G A39U C45U, 0.07; under C13U A16G G33C U34C, 0.02.
Under G2C G5A G21U G40U U43C stands 0.43.
A6U U9A A26C: the self-cleavage came out at 0.09.
In the case of G5U G7C A26U G27A, the self-cleavage came to 0.06.
Under A4C U9A C37U stands 0.05.
Under C8U U9A A24C G36A C42U stands 0.27.
On to U20G C37A G44U, for which the self-cleavage was 0.04.
With U32G C37A G44A the figure was 0.05.
For the variant C8U G21A U28G G29C C46G, the self-cleavage came out at 0.01.
As for G1U G5U G35U, the self-cleavage is 0.05.
As to G5C G7U A14G G22U, the self-cleavage came to 0.63.
With C15U G29U G35U the figure was 0.09.
As for G1A C13U C23G, the self-cleavage was determined as 0.39.
A14C U32A G40A: the self-cleavage amounted to 0.01.
With C3A G5U C18G C31U the figure was 0.02; with A4U C8U G21C G35A, 0.47.
For the variant C10U U20G G30U G40C, the self-cleavage came out at 0.01.
Under A14C G22C U28G stands 0.07.
With G1C A12C C31U G33A the figure was 0; with G22C G27U U32G, 0.05.
With G5U U9G A26G the figure was 0.03.
With G2U C3A A39G C46U, the self-cleavage was 0.03.
With U9A C10A C13U U32G the figure was 0.03; with G7U C31G U32G, 0.1.
On to A11U C13U U28A G44U, for which the self-cleavage worked out at 0.01.
Under C10A C18U A39G stands 0.02.
Under C23G U34C G40C stands 0.02; under G1A G7C G17U, 0.15; under G5A C10A C46U, 0.01.
Consider A26C U32G G40C, for which the self-cleavage was determined as 0.03.
Under C3A C10G C23G stands 0.02; under G5U C10A A11U C23A G36U, 0; under G1C C3U A6U U9G A26C, 0.07.
As to U20A G21A G35A G36A, the self-cleavage was 0.09.
In the case of G33A G35U C45G C46U, the self-cleavage worked out at 0.04.
As to G2U G7A U20A A26C, the self-cleavage was 0.05.
Regarding G7A G30U G36C, the self-cleavage worked out at 0.11.
Consider G1U A6G G17U G19C U34A C46G, for which the self-cleavage worked out at 0.02.
As to A4G U20A C31A A39U, the self-cleavage stood at 0.
Consider C15A G21C C42U, for which the self-cleavage was 0.02.
Take C8U C13G C15A G19A A25U G40U: the self-cleavage amounted to 0.02.
Regarding U9C C18G A25G U32A, the self-cleavage is 0.02.
Regarding C3G U20C U34A, the self-cleavage worked out at 0.03.
Regarding A4G G30A A41C, the self-cleavage came to 0.02.
Under A14U A26C G33C stands 0.02; under G30U U34A C42G, 0.
Under A11G A16G G33A stands 0.01.
Take A6C C8U A14C G27C G36A A41U: the self-cleavage came out at 0.05.
On to G5A U9G G33A C45G, for which the self-cleavage was determined as 0.03.
For A4G G5A G7A C18A, the self-cleavage worked out at 0.05.
Under U34C G44C C45A stands 0.05.
With A4G U9G A25U the figure was 0.27; with G1C C8A G19U, 0.04.
Consider C13U G21C U34C, for which the self-cleavage was 0.03.
As for G17A U20C G36U, the self-cleavage came out at 0.02.
With C10G C23U G30C A41C the figure was 0.01.
Under U9A U32G C42U stands 0.48.
With A16G G40A C45U the figure was 0.01.
For G1U C3U G19A U28C C42A, the self-cleavage was 0.05.
Regarding A16U A24C C31G C37A A41C U43A, the self-cleavage amounted to 0.01.
As to G2A A6C A12U G17U C42U, the self-cleavage was 0.14.
As for A24U A25C A26U U34C, the self-cleavage was 0.02.
